# Data published in article PMC10726135.
# Some of the results follow. At the low end of the ranking the order means little. The protein was read in a cell extract, so binding may be indirect.
# Target: T1, HNF4alpha8 (COS-7 nuclear extract) (UniProt P41235-5)
# T1 sequence: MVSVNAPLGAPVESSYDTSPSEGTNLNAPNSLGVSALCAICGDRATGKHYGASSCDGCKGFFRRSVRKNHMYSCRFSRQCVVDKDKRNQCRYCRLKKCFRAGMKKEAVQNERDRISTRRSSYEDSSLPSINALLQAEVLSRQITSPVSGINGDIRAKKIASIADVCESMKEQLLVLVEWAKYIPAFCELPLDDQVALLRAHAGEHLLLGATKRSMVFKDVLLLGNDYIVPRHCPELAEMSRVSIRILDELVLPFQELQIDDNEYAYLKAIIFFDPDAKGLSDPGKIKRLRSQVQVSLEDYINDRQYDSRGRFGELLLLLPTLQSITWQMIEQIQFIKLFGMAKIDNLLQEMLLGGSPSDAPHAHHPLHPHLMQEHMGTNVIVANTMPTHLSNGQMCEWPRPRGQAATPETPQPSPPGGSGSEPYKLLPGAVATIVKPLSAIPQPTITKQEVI
# Test: protein-binding microarray
# Conditions: COS-7 nuclear extract on double-stranded Agilent 4x180k PBM; binding buffer, salt, pH and temperature not given; high values mean tight binding; double strand, one strand shown; sequences stand for … in …GCCTAGGGAGATTAGAGTATCGGTCGA
row,Sequence,binding signal (log2 normalized intensity)
1,TCATCGCACCGGCAGGGGAGAACTTCCTCC,-1.22
2,TTCCTCCCTCCCTCTTCCCTCATATAATTT,2.56
3,ATGTTGTCCCTGCCCTTTGTCCAGGGTGAG,3.45
4,CGCCCCCAACGGGCCACGCCCTGCACCCTA,4.07
5,TTTCTAAGGACACAACAGAATGTGACTGCC,-1.01
6,GGGCCTCTGAGATAAGGGTTCAAACTCAGT,2.18
7,CATCCAAGGACTTTGTAATCATATTGATAA,2.43
8,GTGCAGTTTTTCTGCCGAAGATATTTAACC,0.707
9,AATTCCAAAGTTCAAGTAGAGCTTCACCTC,3.84
10,GAGGGCTCTGTCTGCTGGGCCTTCAGCTTG,-1.29
11,GGGCAAATCTGAGGTCAAAGCTGTCAGAGA,-0.316
12,GCTCATCCATTTTCCTCTGAAAATCATTCA,-0.4
13,TTTGTCTTAGGGGGTCTGGTTTCTAGGTAG,0.743
14,ATAATTAGGTCTTTTGGTGAGTCTTTGCCC,2.27
15,CCGGGGCCTGGGCGCGCCTGCCCTTCGCTC,2.98
16,GGACACAGTTCAGGCCATCACACTCCTACC,-1.23
17,TACCAGCTGGGGTTTTACCAGGCACGCATG,-1.27
18,AAATCTGATCTTTCCTCTAAGTGCCCAAAT,1.12
19,GCTCCCATCCCCCCAAAGGCTCTCTGTTGA,4.12
20,CTCATTCCTATTCGGTGCTGACCTTTGTTC,8.62
21,CTCCTCTGCCTCCAGCTGTTGGTGACTGAC,-0.649
22,GTGTGCTCGAGGTGGACTTTCCCCCCTCAC,6.69
23,AGATGACCTTTGCCCTTGACTTTTTGTGGG,7.72
24,TGTGGTAATAAGTTGGTGGACGCTGGGGAA,0.488
25,ACTAAATGCAGCCTTGGGCAAGTTACTTAA,-1.32

row,Sequence,binding signal (log2 normalized intensity)
1,TGGTTGCTAAGAGACAGCTCCACAGCTGGA,-1.19
2,ATGACCCAAACTTCACAAAAATGAGTGCAA,-0.806
3,ACTAAATCTCTCCTAGAGAAAGGGGCTTAG,-1.36
4,CTTTGTCCTAGTGCATGCTGGGAGTCGGGC,0.728
5,CCAGTGAGTGCAGCAGTGTACTTGAGCTTC,0.72
6,CACCAAGGCCGGAAAAGATTAGATTGCTCA,-1.25
7,TATGTCAGGCTCAGGGACCCAGCGGAATGC,-1.3
8,AGTCAGTTCCCCTGCGGACTCTGGAACCAT,4.08
9,TTTATCTCCTCCCCTTGAGACTTTAATCTC,2.61
10,GAACGCTTGTGATTACACTGGGCTCACCTG,-1.27
11,ACCTTCCAGACAGAGAGGTCAGCAAATGTG,1.2
12,ACAGTTACCGAGAGGTAACTCCCCCTTCAT,2.93
13,GGGAATCAGTCCATAAATACACAATCTGAA,-1.24
14,GCTGAAGTTCCCAGCCCTTCACCAGAGCCG,-1.24
15,GGACTAAATTCTGCGGCGGAAGGACACAGA,-1.28
16,TCAACTATTTAAATAGCTCAAGCCTGTTCC,-1.14
17,CGATAAACCCAGGCAATGACTCCAAAGTTC,2.95
18,GTGTTTAATGTTTTCATTCTGATTTGCACA,0.934
19,AGGGTAGTTTGGAGATGCCGTTAAGCAGAT,-0.662
20,CCCCAGTAACAAAGGAAAGAGCTAACATAT,-1.28
21,GCTCGTGTCATCTCTGGCTAACAGGTCAGG,1.69
22,AGTCCAAAGGTCAGCCGGGGAAGGTGCAGG,5.55
23,AGACACGCCTTGCACAAATTTCAGATATCT,-1.33
24,GTAGTGGTTGAATTTCAGAGGGAAGAGGAA,-1.29
25,GCCCCACTGGGGTGGAGATGCCGTCGGCAC,-0.359

row,Sequence,binding signal (log2 normalized intensity)
1,CTCTACTGTCCATCTTTTGCCCCTCTTATG,3.58
2,CCTTAAAGCATGACAAAATAACGAAGGCAT,-1.24
3,CTCCAGGGGACTGCCTCTTCAGGAGGCACT,-1.31
4,ATTTTGCTCTTTGTACCGTTTGAACAGCCA,3.04
5,GCTCCCCCAGTGAGCAATTCTTGTCCCTTT,3.11
6,AGGGGGGTGGGCACCCCTGCCCCCATGTTG,3.2
7,AGCAGGGGGCGCAGAAGGGATGGGAACCGA,-1.18
8,GCAGCCCAGCAAAGAGGGTCAAAGCCCAGG,0.556
9,AGCCAAGATTACAGCCACATGCTAACACAC,-1.34
10,AAACTGTTATCTCTCAACTCAGTGAGGGCT,-1.3
11,TTCATCCTGAGAGGGCTCAAGGTCTGCATG,1.65
12,TAATGATTTGTAAATCTCTAGTCCCAGCCT,-1.24
13,GCCGGTTCCCGCCCAAGGAGACAGGCTTTG,-1.24
14,AAACCCACGCCCACCCTATTGATGCAAGGA,2.17
15,GCACGCACACCGAGCACGGTGCAGGGAGGA,-1.39
16,CGCCGCATCTACCAGCGTAATTCTGGCTCT,-1.31
17,CTTGTCTGGCCTTCCTGGCCCTAGCTGGGT,0.862
18,CCACATACAAGTCACTCTTCATTTCCCTCA,-1.21
19,AAAGTCTTTCTCTTTCAAGATAACAAGGCA,0.808
20,TGCTGGAATGAAGACTCACATCTATCTCCC,-0.571
21,TACCAGGAATATTGCCCCCTAATGGTATTT,3.76
22,TTGGCCCTCAGCCCAATGTGGTAGGATGGC,0.0591
23,ATAACATGAGGTAGAGGGACACTGATAACA,-1.44
24,GTTGTACCTGACTAAAACCTGCTGCAGGAG,-1.02
25,ATCCTTCAAAGCTGAGAATTGGGAGGGCTT,-1.4

row,Sequence,binding signal (log2 normalized intensity)
1,ATTTCACAGCAACCTCAGACCTCTCCCGCC,1.3
2,ATTATTGCCTGGCATCTAACCTTCGTCCTT,4.45
3,TAGCCTCAAATTCCTGGGCTCAAACAATCC,-1.36
4,CCTTCAGTTCTTATCTCGTACTTCTGTTGT,2.18
5,GAGTCTCCTGGGTAATCACCAAACTTCACA,-1.32
6,GAAAGGATCTCACCCAAACCATCCCAGGCA,3.1
7,TTGAAGAAATGGTGGACTTTGTAGCTCAAA,4.79
8,GACTTCCATTGTGTTGCAGATGATCAAGAG,1.19
9,ACTGTAAGATCAAGATTAAGAAGAGCAGCT,-1.32
10,CCGACCCGCCCGACTACAACAGCCTTGCAG,-0.809
11,TGTACTAATGATTTGTAAATCTCTAGTCCC,-1.16
12,CTCAACTCCCTCTGAAGGGAGGGCCAAGCC,-1.24
13,ATCTTCCTCCCCCCTTGGCTACATGTTTGT,3.73
14,GTGCTGACCTCCTGTCTCATCCTGTGACCA,2.18
15,GGGTTGGCATGCATATGAGTAATGTGAAGA,0.748
16,TCCTTATTTATCTTCCAGCGGGTGCTTAAA,0.716
17,CTCCTGGACTTTGGTCTCATGGGCCTAAAC,5.27
18,GGGGAAGCTGTTGGGCGCCGGAACTGGTCC,-1.3
19,TGTTTGTAAACTGTCATGGTGCTGGCGGGA,0.745
20,CATATCTGGAATTTCAAAGGGAGCATATGT,1.31
21,GTGGCAGGCACTTAGCAAATATTTACTGAA,-0.877
22,AATCTTCATTCCTCAAATGCTCCTTTGAAC,3.03
23,GAGTGCTTTCATCTTTGCGGTGAGCATTTG,1.03
24,AGGGAGGCAGCCACCTAGGCCGGTCAAGTC,-1.29
25,GCATGACTTGTTATCACCTGCTGGAATGTT,1.88

row,Sequence,binding signal (log2 normalized intensity)
1,TCAAATCCCCTAGGTGATTAGAAGATAGCT,-1.28
2,CTTATACGTGGAAGAAACTCATCTCCAGAT,-1.27
3,TCCAGCCAGGTTGCATCAGCTGGGCTCGGC,-1.45
4,TGCCTGGGTCCTGGGAGCAAACCCCAGCTG,-1.26
5,ATGATGAAAGCAATGTTTGAGGAAGATTAG,-1.24
6,AACTAAAAGTATCTAAGGGCCTAGAAGAGT,-1.24
7,CCCCTTCTTAACATCAGAAGTTGGACTTTG,8.31
8,CTGCGTTTTTTCCGAACGCCAGCAGCAGGG,-1.32
9,CTATAGTTATCTCTGCTGATAGCATAAAGC,0.212
10,CGCGCGTGTGGATACGATGACATCATCTGT,0.525
11,ATTTCAAACCTTTGCCCCACTCTCCTCTGC,3.78
12,GTAAATATGACCTTTGCTTTTCAAGATTTT,3.79
13,AGACTTTGGACCTGGCCCTCTGGGTTGGAA,5.58
14,CTGGAGTCCAAAGGTCAGCAAGCCTGGAGT,7.44
15,GATCAGAAATGTTTGGAATTCCACAGCAGA,-0.813
16,CAGTGGGCCCAGAGCACAACCTTTGGCCGT,5.28
17,ATGATTTCAGCTTATAAATCTTCAACTGGA,-0.973
18,CCTGTACCTAGAATTCTTTCACTCCCTTTT,0.592
19,CCCTCCATGTAACCCCTTTTCAATTCCTTA,1.77
20,GGAGGAAATCTCTCTGGTCAAAGGGTAAAG,3.39
21,GTCCTTCCAAAGTCCTTCTAAAGCAAATTT,1.86
22,CAAGAAGTTCCAAAGGCCAGTGTGGCTAAC,1.3
23,AAGGAAGGTGCTTATCAGAGCAAGAGATGG,-1.12
24,ACAGCAGTGGACTTTGACCTTGGCACTGAA,9.68
25,GTCCTTGATAAGCAAGATGACTTTGGTCTA,1.82

row,Sequence,binding signal (log2 normalized intensity)
1,CATCTACCAGCGTAATTCTGGCTCTTTGAG,-0.849
2,GCCTAGGAAAACCAGAGACCTTTGTTCACT,3.69
3,GCATCTCATTACTGACAGAGATCAAAAACC,-0.109
4,CCTGTACACGGTTCTTGACCTGTGATAAGA,2.98
5,GATCCCTTATTTGCATGAAGCACAAAGGTT,3.17
6,GCGTGGTGGCCTGTGCCTGTAGTCCCAGCG,-1.3
7,CAGAGGAGATCAGAGGAGGCACTTGTCTCA,-1.33
8,TGTGCTGAAAAGACTTCACAATCAATTCCA,-1.35
9,TGGTTTACATTCTTAGAAGATAAAGTGTCT,0.378
10,CTCAAGTGACCTTTGACCTCTGGCCTTTGC,10.3
11,GCTGGTGGGTGGGGGAAGTGTGGTCAAGGG,1.35
12,ATTTAAGCTTGAGACAAAGGAAACTGATTG,-1.25
13,TACATTGGACAACTGTACTTTGGACTGGGG,6.69
14,CAGAAAAATGGAGCAGCTCTGTATTGAGAT,-1.16
15,ATGTCTCAAGATATCTATATGTTTACATAT,1.75
16,GGACAGTGGTCTTTATGACTTGGGTGCACC,2.3
17,CCCAGATGCACGTGCTCCAGGAGGGGAGGA,-1.25
18,AAGACTGAGCAGCTGGAGGGGGACTGGAAG,-1.31
19,ACAGTAGGCTCTAGATGTCTCAGTAGATAA,-1.27
20,ATTTCATAGACTGTCCCTCAGTGTGGGACT,-0.161
